The text below walks through data of patent publication US9884084B2, “Bone loss preventing and bone regeneration or bone formation promoting pharmaceutical composition comprising muramyl dipeptide” (SNU R&DB FOUNDATION, priority 2012, dated 2018).

In the test the test system is bone marrow macrophages (BMMs). The test can be described thus: Osteoclast differentiation from bone marrow macrophages, TRAP staining. To be noted: 20 ng/ml M-CSF and 20 ng/ml RANKL, 3 days; FIG. 7. The method, then: Bone marrow cells (BMs) were isolated from the long bones of mouse and were cultured in α-MEM supplemented with 10% FBS, 100 U/ml penicillin and 100 μg/ml streptomycin, and 2 ng/ml M-CSF for 1 day. Suspended cells were differentiated into BMMs with 20 ng/ml M-CSF for 3 days. The BMMs were incubated with 20 ng/ml M-CSF and 20 ng/ml RANKL in the presence or absence of MDP for additional 3 days. To make RANKL-primed osteoclast precursors, the BMMs were stimulated with 20 ng/ml mouse RANKL for 48 h. The BMMs were incubated with 20 ng/ml M-CSF in the presence or absence of MDP for additional 3 days.
The differentiation was determined by tartrate resistant acid phosphatase (TRAP) staining using Leukocyte acid phosphate-staining kit (Sigma-Aldrich Chemical, USA) according to the manufacturer's instruction. After the staining, TRAP-positive multinucleated cells with at least 3 nuclei were enumerated as mature osteoclasts with an inverted phase-contrast microscope and results are shown in FIG. 7.

“N-acetylmuramyl-L-Alanyl-D-Isoglutamine [MDP]”: the “differentiation into osteoclast from bone marrow macrophages (TRAP-positive multinucleated cells)” value was “did not affect”.
